Here are results for 56 variants from the RNAGym collection of RNA variant scans (doi:10.7554/elife.90254).

First the molecules themselves.
B1: LINE1-mini (parent)
chain: GGCAGAGCUCAACACAGCGUGGCAAAGUGGCUGUGGCUAGACUGCC

Read counts are not given, so values of variants with three or more changes are uncertain.

In this data set the parent is B1. Kind of data set: self-cleavage, relative activity (ratio to wild type); higher = more cleavage; in vitro, sequencing; the parent is a self-cleaving ribozyme.
Take GGCAGAGCUCAACAUAGCGUGUCAAAGUGGAUGUGGCCAGACGGCC [C15U G22U C31A U38C U43G]: the self-cleavage is 0.02.
Take GGCAGAGCUCAACAUAGCGUGGCAAAGUGUCCGUGGCUAGACUGUC [C15U G30U U32C C45U]: the self-cleavage is 0.04.
For GGCAGAGCUCAACAUAGCGUGGGAAAGUGGCUGUAGCUAGACUGCC [C15U C23G G35A] the value was 0.07.
For GGCAGAGCUCAACAUAGCGUGGCAAAGUGACUGUGGUUAGUCUGCC [C15U G30A C37U A41U], the self-cleavage is 0.02.
To GGCAGAGCUCAACAUAGCGUGGCAAAGUGGCUCUGGCUAGAUUGCC [C15U G33C C42U] belongs 0.02; to GGCAGAGCUCAACAUAGCGUCGGAAAGUGGCUCUGGGUAGACUGCC [C15U G21C C23G G33C C37G], 0.03; to GGCAGAGCUCAACAUAUAGUGGCAGAGCGGCUGUGGCUAGACUGCC [C15U G17U C18A A25G U28C], 0.02.
For GGCAGAGCUCAACAUAGCGUUGCUAAGUGGCUGUGGCUAGAUUGCC [C15U G21U A24U C42U] the value was 0.4.
To GGCAGAGCUCAACAUAACGUGGCAACGGGUCUGUGGCUAGACUGCC [C15U G17A A26C U28G G30U] belongs 0.07; to GGCAGAGCUCAACAUAGCGUGGCAAAGUCGCUGUGGAUAGACUGCC [C15U G29C C37A], 0.11; to GGCAGAGCUCAACAUAGCGUGGGAAAGUGGCUGUGGCUAGACUGUC [C15U C23G C45U], 0.93.
Regarding GGCAGAGCUCAACAUAGCGUAGGAAAGUGGCUGUGGCUAGACUGCC [C15U G21A C23G], the self-cleavage came out at 0.13.
For GGCAGAGCUCAACAUAGCGUGGCAAAGUGGCUGUGGAUAGACAUCC [C15U C37A U43A G44U] the value was 0.13.
To GGCAGAGCUCAACAUAGCAUGGCAAAGUGGCUGUGGGUAGACUGAC [C15U G19A C37G C45A] belongs 0.05; to GGCAGAGCUCAACAUAGCUUGACAAAGUGGCUGUGGCUAGACUGCC [C15U G19U G22A], 1.2; to GGCAGAGCUCAACAUAGCGUGGCAAAGUUGCGGUGGCUAGACUGCC [C15U G29U U32G], 0.03.
For GGCAGAGCUCAACAUAGCGUGGCAAAGUGGCUGUGGCUAUACGGCC [C15U G40U U43G] the value was 0.07.
GGCAGAGCUCAACAUAGCAUGGCAAAGCGGCUGCGGCUAGACGGUC [C15U G19A U28C U34C U43G C45U]: the self-cleavage came to 0.01.
For GGCAGAGCUCAACAUACCGUGGCAAAGUGACUGUGGCUAGACUGCC [C15U G17C G30A] the value was 0.08.
To GGCAGAGCUCAACAUAGCGAGGCAAUGUGGUUGUGGCUAGACUGCC [C15U U20A A26U C31U] belongs 0.04; to GGCAGAGCUCAACAUAGCGUCGCAAAGUGGCUGUGGCUAGGCUCCC [C15U G21C A41G G44C], 0.06.
To GGCAGAGCUCAACAUAGCUUGGCAAAGUGGCUGUGGCUAAACUUCC [C15U G19U G40A G44U] belongs 0.
Take GGCAGAGCUCAACAUAGCCUGGCAAAGUGGCUGUAGCUAGACUGCC [C15U G19C G35A]: the self-cleavage was 0.13.
For GGCAGAGCUCAACAUAGCGUGGCAAAGUGACUGUGGUUGGACUGCC [C15U G30A C37U A39G], the self-cleavage came to 0.01.
For GGCAGAGCUCAACAUAGCGUGGCAAAGUGGCUGUGUCUUGACUGCC [C15U G36U A39U], the self-cleavage was 0.05.
For GGCAGAGCUCAACAUAGCGUGCCAAAGUGGCUGUGGCUAGGCUGCC [C15U G22C A41G], the self-cleavage came out at 0.07.
To GGCAGAGCUCAACAUAGCGUGGCAAACUGGCUAUGGCUAGAGUGCC [C15U G27C G33A C42G] belongs 0.06.
For GGCAGAGCUCAACAUAGCGUGCCAAAGUGGUUGUGACUAGACUGAC [C15U G22C C31U G36A C45A], the self-cleavage worked out at 0.03.
For GGCAGAGCUCAACAUAGCGUGGCAAAAUGGCUAUGGCUAGACUGUC [C15U G27A G33A C45U] the value was 0.59.
For the variant GGCAGAGCUCAACAUAGCGUGGGAAAGUGACUGUGGGUAGACUGCC [C15U C23G G30A C37G], the self-cleavage was 0.03.
To GGCAGAGCUCAACAUAGCGUGGCAAACAGGCUGUGGCUAGACUGUC [C15U G27C U28A C45U] belongs 1.48; to GGCAGAGCUCAACAUACCGUGGCAAAGCGGUUGUGGCUACACUGCC [C15U G17C U28C C31U G40C], 0.
As for GGCAGAGCUCAACAUAGCGUGCCAAAGUGGCUGUGGCCAGACUGCA [C15U G22C U38C C46A], the self-cleavage was determined as 0.04.
Regarding GGCAGAGCUCAACAUAGCGUGGCAAAGUGGGUGUGGCUAGAAUGCC [C15U C31G C42A], the self-cleavage was 0.
To GGCAGAGCUCAACAUAGCGUGGCAAAGUGGCUGUGGUUAGCCUGGC [C15U C37U A41C C45G] belongs 0.02.
For GGCAGAGCUCAACAUAGCGUGGCAAAGUGGGUGUGGCUAGACUGCU [C15U C31G C46U] the value was 0.05.
To GGCAGAGCUCAACAUAUCGUGGCAGAGUGGCUGUGGCUAGACUGCC [C15U G17U A25G] belongs 0.04.
As to GGCAGAGCUCAACAUAACGUGGCACAGUGGCUGUUGCUAGACUGCC [C15U G17A A25C G35U], the self-cleavage stood at 0.02.
On to GGCAGAGCUCAACAUAUCGUGCCAAAGUGGCUGUGGCUACACUGCC [C15U G17U G22C G40C], for which the self-cleavage turned out to be 0.02.
As to GGCAGAGCUCAACAUAGCUUGGCAAAGUGGUUGUGGCUAGACUGGC [C15U G19U C31U C45G], the self-cleavage came out at 0.02.
GGCAGAGCUCAACAUAGCGUGGCAAAGUGACUGUGGCUAGGCUGCC [C15U G30A A41G]: the self-cleavage is 0.11.
To GGCAGAGCUCAACAUAGCGUGGCAAAGUAGCUGUGGCUAUACUGCC [C15U G29A G40U] belongs 0.01; to GGCAGAGCUCAACAUAGCGUGGCAAAUUGGCUGUGGCUAGACUGAC [C15U G27U C45A], 0.24.
Take GGCAGAGCUCAACAUAGCGUGGCAAAGUCGCUUUGGCUAGAGUGCC [C15U G29C G33U C42G]: the self-cleavage was 0.04.
In the case of GGCAGAGCUCAACAUAGCGUGGCAAAGUCGCUGUGGCUAGAAUUCC [C15U G29C C42A G44U], the self-cleavage worked out at 0.06.
Regarding GGCAGAGCUCAACAUAGCGUGGAAAAGUGGCUGUGGCAAGACUGCC [C15U C23A U38A], the self-cleavage is 0.54.
For GGCAGAGCUCAACAUAGCGUGGCAAACUGGCUGUUGGUAGACUGCC [C15U G27C G35U C37G] the value was 0.22.
For GGCAGAGCUCAACAUAGCGUGGUAAAGUGGCAGUGGCUAGACUGCC [C15U C23U U32A] the value was 0.02.
For GGCAGAGCUCAACAUAGCGUGGCAAAAUGACUGUGGCUAGACUGCC [C15U G27A G30A] the value was 0.34; for GGCAGAGCUCAACAUAUCGUGGCAAAGUGGCUGUGGCUACACUGCC [C15U G17U G40C], 0.22.
Regarding GGCAGAGCUCAACAUACCGUGGCAAAGUUGCUGUGGCUAGACUGCC [C15U G17C G29U], the self-cleavage is 0.1.
To GGCAGAGCUCAACAUAGCGUCGCAAAGUAGCUAAGGCUAGACUGCC [C15U G21C G29A G33A U34A] belongs 0.47.
For GGCAGAGCUCAACAUAGCGUGGCAAAGUGGCUGUGACUAGACUGAC [C15U G36A C45A] the value was 0.02.
To GGCAGAGCUCAACAUAGCGUGGCAAACCGGCUUUGGCUAGACUGCC [C15U G27C U28C G33U] belongs 0.2; to GGCAGAGCUCAACAUAGCGUGUCAAAUUGGCUGCGGCUAGACUGCC [C15U G22U G27U U34C], 0.09; to GGCAGAGCUCAACAUAGCGUGGCAAAGUCGCUGAGGCUAGACUGCC [C15U G29C U34A], 0.04.
